No constants are given. Whether binding was seen depends on the method and setting. Some entries that bind do so weakly or less than the wild type. One block for each binder: values may come before it.
Assays:
Test in all cases: two-hybrid; LexA-septin bait (modified pBTM116) in yeast L40 screened against human fetal brain and human leukocyte cDNA libraries (pACT2); minimal medium without Trp, Leu, His, with 5 mM 3-AT; every clone confirmed one-to-one with its bait by beta-galactosidase filter assay, empty bait vector as control
[1] = biological target: human septin 3 (human) (UniProt Q9UH03)
[2] = biological target: T1, human septin 6 (human) (UniProt Q14141)
T1 sequence: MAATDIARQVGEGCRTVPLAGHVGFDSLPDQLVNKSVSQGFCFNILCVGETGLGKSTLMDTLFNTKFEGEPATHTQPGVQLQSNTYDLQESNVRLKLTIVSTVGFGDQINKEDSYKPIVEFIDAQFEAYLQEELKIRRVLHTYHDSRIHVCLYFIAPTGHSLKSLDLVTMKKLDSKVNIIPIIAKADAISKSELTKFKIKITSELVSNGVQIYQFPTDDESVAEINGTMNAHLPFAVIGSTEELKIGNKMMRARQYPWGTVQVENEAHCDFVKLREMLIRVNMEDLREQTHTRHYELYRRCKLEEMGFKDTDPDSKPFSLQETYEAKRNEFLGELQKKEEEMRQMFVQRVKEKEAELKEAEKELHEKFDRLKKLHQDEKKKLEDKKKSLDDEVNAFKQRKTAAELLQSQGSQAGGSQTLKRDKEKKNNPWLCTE

Chains of the proteins cited; added tags and fusions are not shown. Lines headed by an entry give the natural chain unless they say otherwise; changes in a name come on top. A line that says so, or that is headed by a name, gives the form on record, which may keep a tag or linker.
human septin 3 (Q9UH03, form named): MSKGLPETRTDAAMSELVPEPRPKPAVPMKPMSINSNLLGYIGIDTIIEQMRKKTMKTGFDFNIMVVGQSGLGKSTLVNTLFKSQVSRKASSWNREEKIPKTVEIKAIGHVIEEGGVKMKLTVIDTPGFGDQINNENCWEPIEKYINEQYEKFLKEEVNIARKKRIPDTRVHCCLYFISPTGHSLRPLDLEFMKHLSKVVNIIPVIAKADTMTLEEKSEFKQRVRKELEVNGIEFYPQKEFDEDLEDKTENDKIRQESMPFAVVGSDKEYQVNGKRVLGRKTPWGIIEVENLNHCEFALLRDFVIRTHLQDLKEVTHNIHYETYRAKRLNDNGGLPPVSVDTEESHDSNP

[3] = biological target: T2, human septin 1 (human) (UniProt Q8WYJ6)
T2 sequence: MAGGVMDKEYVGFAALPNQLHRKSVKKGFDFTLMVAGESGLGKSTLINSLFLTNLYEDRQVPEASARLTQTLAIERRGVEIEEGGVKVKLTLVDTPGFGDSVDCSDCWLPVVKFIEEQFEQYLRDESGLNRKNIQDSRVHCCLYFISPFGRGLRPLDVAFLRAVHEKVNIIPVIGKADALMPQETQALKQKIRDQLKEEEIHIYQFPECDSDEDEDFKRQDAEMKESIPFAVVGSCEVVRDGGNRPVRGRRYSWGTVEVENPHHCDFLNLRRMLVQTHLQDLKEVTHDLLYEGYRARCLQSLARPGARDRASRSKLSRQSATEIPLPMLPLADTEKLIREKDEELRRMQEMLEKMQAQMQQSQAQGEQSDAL

[4] = biological target: T3, human septin 10 (human) (UniProt Q9P0V9)
T3 sequence: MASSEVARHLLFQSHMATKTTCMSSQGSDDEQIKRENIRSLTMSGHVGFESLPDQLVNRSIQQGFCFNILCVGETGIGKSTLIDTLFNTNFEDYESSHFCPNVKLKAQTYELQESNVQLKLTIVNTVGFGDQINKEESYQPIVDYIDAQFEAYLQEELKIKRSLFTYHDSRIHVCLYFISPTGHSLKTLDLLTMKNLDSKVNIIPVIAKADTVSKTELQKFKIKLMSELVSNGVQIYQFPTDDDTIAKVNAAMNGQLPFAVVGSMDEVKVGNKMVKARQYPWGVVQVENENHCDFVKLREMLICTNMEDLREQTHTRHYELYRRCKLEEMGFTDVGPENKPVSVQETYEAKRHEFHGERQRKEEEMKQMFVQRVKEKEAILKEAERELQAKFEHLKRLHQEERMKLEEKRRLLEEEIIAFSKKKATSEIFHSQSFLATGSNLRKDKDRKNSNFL

[5] = biological target: T4, human septin 8 (human) (UniProt Q92599)
T4 sequence: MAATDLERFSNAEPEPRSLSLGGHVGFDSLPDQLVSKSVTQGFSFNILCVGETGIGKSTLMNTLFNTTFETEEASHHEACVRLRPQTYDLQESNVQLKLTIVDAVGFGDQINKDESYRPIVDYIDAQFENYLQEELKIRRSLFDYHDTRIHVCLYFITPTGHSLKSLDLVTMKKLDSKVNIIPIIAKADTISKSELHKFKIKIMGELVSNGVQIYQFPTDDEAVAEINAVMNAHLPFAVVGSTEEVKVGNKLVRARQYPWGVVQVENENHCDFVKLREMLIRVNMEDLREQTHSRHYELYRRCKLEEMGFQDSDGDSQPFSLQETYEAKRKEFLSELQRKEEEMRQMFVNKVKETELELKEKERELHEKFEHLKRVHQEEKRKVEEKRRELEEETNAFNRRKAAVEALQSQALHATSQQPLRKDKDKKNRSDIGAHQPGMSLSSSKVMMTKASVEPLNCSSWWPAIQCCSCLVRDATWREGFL

[6] = biological target: T5, human septin 6 (human), Q14141; settings: remark: other sources report otherwise
T5 chain: T1 sequence

[7] = biological target: T6, human septin 5 (human) (UniProt Q99719)
T6 sequence: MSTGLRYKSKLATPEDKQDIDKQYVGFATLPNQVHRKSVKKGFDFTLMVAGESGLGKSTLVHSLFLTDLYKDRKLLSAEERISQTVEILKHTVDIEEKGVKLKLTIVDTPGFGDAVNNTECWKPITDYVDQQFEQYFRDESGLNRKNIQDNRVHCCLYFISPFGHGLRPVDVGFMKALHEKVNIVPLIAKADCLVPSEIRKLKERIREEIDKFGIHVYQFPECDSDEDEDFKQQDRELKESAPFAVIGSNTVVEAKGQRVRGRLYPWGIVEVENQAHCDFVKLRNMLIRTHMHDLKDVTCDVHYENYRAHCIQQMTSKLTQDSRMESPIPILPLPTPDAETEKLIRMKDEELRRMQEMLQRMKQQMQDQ

B1: SEPT11(7-429) (domain or fragment, UniProt Q9NVA2 7-429)
chain: RPSNEELRNLSLSGHVGFDSLPDQLVNKSTSQGFCFNILCVGETGIGKSTLMDTLFNTKFESDPATHNEPGVRLKARSYELQESNVRLKLTIVDTVGFGDQINKDDSYKPIVEYIDAQFEAYLQEELKIKRSLFNYHDTRIHACLYFIAPTGHSLKSLDLVTMKKLDSKVNIIPIIAKADTIAKNELHKFKSKIMSELVSNGVQIYQFPTDEETVAEINATMSVHLPFAVVGSTEEVKIGNKMAKARQYPWGVVQVENENHCDFVKLREMLIRVNMEDLREQTHTRHYELYRRCKLEEMGFKDTDPDSKPFSLQETYEAKRNEFLGELQKKEEEMRQMFVMRVKEKEAELKEAEKELHEKFDLLKRTHQEEKKKVEDKKKELEEEVNNFQKKKAAAQLLQSQAQQSGAQQTKKDKDKKNASFT
binding [1]: binds

B2: SEPT7(65-437) (domain or fragment, UniProt Q16181 65-437)
chain: TLINSLFLTDLYSPEYPGPSHRIKKTVQVEQSKVLIKEGGVQLLLTIVDTPGFGDAVDNSNCWQPVIDYIDSKFEDYLNAESRVNRRQMPDNRVQCCLYFIAPSGHGLKPLDIEFMKRLHEKVNIIPLIAKADTLTPEECQQFKKQIMKEIQEHKIKIYEFPETDDEEENKLVKKIKDRLPLAVVGSNTIIEVNGKRVRGRQYPWGVAEVENGEHCDFTILRNMLIRTHMQDLKDVTNNVHYENYRSRKLAAVTYNGVDNNKNKGQLTKSPLAQMEEERREHVAKMKKMEMEMEQVFEMKVKEKVQKLKDSEAELQRRHEQMKKNLEAQHKELEEKRRQFEDEKANWEAQQRILEQQNSSRTLEKNKKKGKIF
binding [2]: binds

B3: SEPT6(4-427) (domain or fragment, UniProt Q14141 4-427)
chain: TDIARQVGEGCRTVPLAGHVGFDSLPDQLVNKSVSQGFCFNILCVGETGLGKSTLMDTLFNTKFEGEPATHTQPGVQLQSNTYDLQESNVRLKLTIVSTVGFGDQINKEDSYKPIVEFIDAQFEAYLQEELKIRRVLHTYHDSRIHVCLYFIAPTGHSLKSLDLVTMKKLDSKVNIIPIIAKADAISKSELTKFKIKITSELVSNGVQIYQFPTDDESVAEINGTMNAHLPFAVIGSTEELKIGNKMMRARQYPWGTVQVENEAHCDFVKLREMLIRVNMEDLREQTHTRHYELYRRCKLEEMGFKDTDPDSKPFSLQETYEAKRNEFLGELQKKEEEMRQMFVQRVKEKEAELKEAEKELHEKFDRLKKLHQDEKKKLEDKKKSLDDEVNAFKQRKTAAELLQSQGSQAGGSQTLKRDKEKKN
binding [1]: binds

B6: SEPT5(39-369) (domain or fragment, UniProt Q99719 39-369)
chain: VKKGFDFTLMVAGESGLGKSTLVHSLFLTDLYKDRKLLSAEERISQTVEILKHTVDIEEKGVKLKLTIVDTPGFGDAVNNTECWKPITDYVDQQFEQYFRDESGLNRKNIQDNRVHCCLYFISPFGHGLRPVDVGFMKALHEKVNIVPLIAKADCLVPSEIRKLKERIREEIDKFGIHVYQFPECDSDEDEDFKQQDRELKESAPFAVIGSNTVVEAKGQRVRGRLYPWGIVEVENQAHCDFVKLRNMLIRTHMHDLKDVTCDVHYENYRAHCIQQMTSKLTQDSRMESPIPILPLPTPDAETEKLIRMKDEELRRMQEMLQRMKQQMQDQ
binding [2]: binds

The next lines start with the values.

binding [3]: binds | binding [4]: no binding | binding [2]: binds | binding [5]: binds
B4: human septin 1 (protein, UniProt Q8WYJ6-1 1-372)
chain: T2 sequence

binding [6]: no binding
B5: human septin 8, Q92599-1 1-483 (protein)
chain: T4 sequence

binding [3]: binds | binding [4]: no binding | binding [7]: binds | binding [2]: binds | binding [5]: binds
B7: human septin 2 (protein, UniProt Q15019-1 1-361)
chain: MSKQQPTQFINPETPGYVGFANLPNQVHRKSVKKGFEFTLMVVGESGLGKSTLINSLFLTDLYPERVIPGAAEKIERTVQIEASTVEIEERGVKLRLTVVDTPGYGDAINCRDCFKTIISYIDEQFERYLHDESGLNRRHIIDNRVHCCFYFISPFGHGLKPLDVAFMKAIHNKVNIVPVIAKADTLTLKERERLKKRILDEIEEHNIKIYHLPDAESDEDEDFKEQTRLLKASIPFSVVGSNQLIEAKGKKVRGRLYPWGVVEVENPEHNDFLKLRTMLITHMQDLQEVTQDLHYENFRSERLKRGGRKVENEDMNKDQILLEKEAELRRMQEMIARMQAQMQMQMQGGDGDGGALGHHV
